Among all 230,000 compounds or so, about 3,600 (1.6%) were called active. The inconclusive results got no clear call from the source; some entries with a clear call stand among them for comparison. The call rests on the fitted dose curve; in most records, active means well fitted inhibition curve with a large enough effect (not every such curve was filed as active); inconclusive means small, poorly fitted or top-dose-only effect, or another doubt; inactive means no such curve, though single readings can be large or run the other way. A potency beside an inconclusive call is a rough fit, not a confirmed value.
Target: Lysine-specific demethylase 4E (Homo sapiens) (UniProt B2RXH2)
Chain of UniProt B2RXH2 (B2RXH2 whole entry, looked up, the tested form may be a part): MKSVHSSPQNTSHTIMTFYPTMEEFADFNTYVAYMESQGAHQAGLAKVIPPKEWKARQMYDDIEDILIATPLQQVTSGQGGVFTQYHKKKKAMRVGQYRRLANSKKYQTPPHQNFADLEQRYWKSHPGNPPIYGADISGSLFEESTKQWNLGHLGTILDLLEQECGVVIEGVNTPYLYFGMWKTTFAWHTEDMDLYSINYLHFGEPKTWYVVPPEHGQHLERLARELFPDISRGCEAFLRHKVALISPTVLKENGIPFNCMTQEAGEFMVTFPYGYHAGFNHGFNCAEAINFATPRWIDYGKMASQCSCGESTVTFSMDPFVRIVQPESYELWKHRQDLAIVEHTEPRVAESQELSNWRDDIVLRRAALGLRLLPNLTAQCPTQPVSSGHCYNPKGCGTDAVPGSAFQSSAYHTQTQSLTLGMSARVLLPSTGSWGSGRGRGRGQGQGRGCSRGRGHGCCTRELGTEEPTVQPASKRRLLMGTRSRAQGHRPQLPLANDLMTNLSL
Test: qHTS Assay for Inhibitors of Human Jumonji Domain Containing 2E (JMJD2E)
Settings: JMJD2E catalytic domain, FDH-coupled NADH fluorescence (FDH is formaldehyde dehydrogenase); series mostly up to 57.1 µM
Further: nearly all actives have a fitted effect of over 50% in size.
Potency means the concentration at half of the fitted maximal effect; tags describe the fitted curve by direction and shape.

SMILES | Potency
Cc1ccccc1NC(=O)CN1C(=O)N/C(=C\c2ccc(N3CCOCC3)c(F)c2)C1=O | inconclusive: 28.2 µM [inhibitor, single point]
Cc1ccc(-c2ccc(/C=N/n3cnnc3)o2)cc1Cl | inconclusive: 35.5 µM [inhibitor, single point]
Cc1[nH]c2ccccc2c1/C=C/c1nc2ccccc2c(=O)n1CCO | inconclusive: 1.41 µM [inhibitor, full curve, poor fit]
CCc1cc(CNC(=O)CC2C(=O)NCCN2Cc2cccc(OC)c2)on1 (stereo not given) | inconclusive: 39.8 µM [inhibitor, single point]
COc1c(O)cc2c(=O)oc3c(OC)c(O)cc4c(=O)oc1c2c34 | active: 7.08 µM
Cc1[nH]c2ccccc2c(=O)c1C(=O)/C=C/c1ccccc1 | inactive
C=CCn1c(=O)c(C(=O)NCCNCC)c(O)c2ccccc21 | inconclusive: 39.8 µM [inhibitor, single point]
N=C1c2ccccc2CN1NC(=O)CC12CC3CC(CC(C3)C1)C2 | inconclusive: 31.6 µM [inhibitor, single point]
CCOC(=O)C(=CNc1ccc(Cl)cn1)C(=O)OCC | inactive
Cc1nnc(NC(=O)COc2ccc3c(C)cc(=O)oc3c2)s1 | inconclusive: 31.6 µM [inhibitor, partial curve]
COc1ccc(C(c2nnnn2CCc2ccccc2)N2CCN(C)CC2)cc1OC (stereo not given) | inactive
O=C(O)CSCC(=O)Nc1cc(C(F)(F)F)ccc1Cl | inactive
CCCCN(CC)CCCNC(=S)Nc1ccc2nc(N3CCN(C)CC3)cc(C)c2c1 | inconclusive: 14.1 µM [inhibitor, partial curve]
O=C(O)c1cnn2c(C(F)(F)F)cc(-c3ccco3)nc12 | inconclusive: 25.1 µM [inhibitor, single point]
COC(=O)c1ccc(/C=C(\C#N)c2nc3ccccc3s2)cc1 | inactive
COC(=O)c1ccc(C(=O)OC)c(NC(=S)N2CCC(C(N)=O)CC2)c1 | inconclusive: 15.8 µM [inhibitor, partial curve]
Cc1c(C(=O)Nc2cc(S(=O)(=O)N3CCOCC3)ccc2N2CCOCC2)oc2ccccc12 | inconclusive: 31.6 µM [inhibitor, single point]
O=[N+]([O-])c1ccc(S(=O)(=O)N(CCCN2CCOCC2)Cc2cccs2)cc1 | inconclusive: 35.5 µM [inhibitor, single point]
O=c1c2sccc2nc(SCc2cc(=O)n3ccccc3n2)n1Cc1ccccn1 | inconclusive: 28.2 µM [inhibitor, partial curve]
Cc1onc(-c2ccccc2)c1C(=O)Nc1sc2c(c1C(N)=O)CCC2 | inactive
Cc1ccc(C)c(-n2c(SCC(=O)NCC3CCCO3)nnc2-c2ccoc2C)c1 (stereo not given) | inactive
COCCNC(=O)c1cc(Sc2nnc(C)s2)nc2ccccc12 | inconclusive: 39.8 µM [inhibitor, single point]
CC(=O)N1CCc2c(sc(NC(=O)CN3C(=O)CCC3=O)c2C(N)=O)C1 | inconclusive: 31.6 µM [inhibitor, single point]
COc1ccc(CCN2C(=O)CC(NCc3ccc4c(c3)OCO4)C2=O)cc1OC (stereo not given) | inactive
Cc1cc(NC(=O)c2cc(-c3cccnc3)nc3c(C)c(C)ccc23)no1 | inconclusive: 28.2 µM [inhibitor, partial curve]

SMILES | Potency
CN(CC(=O)Nc1cccc2ccccc12)c1ccc(S(=O)(=O)N2CCOCC2)cn1 | inconclusive: 39.8 µM [inhibitor, single point]
Clc1ccc(Nc2ncnc3c2nnn3Cc2ccccc2)cc1 | inconclusive: 35.5 µM [inhibitor, single point]
Fc1cccc(NC(=S)NCc2ccccn2)c1 | inactive
O=c1[nH]c(SCc2n[nH]c(=S)n2-c2ccccc2)nc2ccccc12 | inactive
CCN=C1Cn2c(nc3scc(-c4ccccc4)c3c2=O)CN1CC | inconclusive: 25.1 µM [inhibitor, single point]
Cc1ccc(OCCn2c(=O)n(C)c3ccccc32)cc1 | inactive
Cn1c(=O)n(C)c2cc(/C=N/NC(N)=S)ccc21 | inconclusive: 25.1 µM [inhibitor, single point]
Cn1nnc2cc(NC(=O)N3CCN(c4ccccn4)CC3)ccc21 | inconclusive: 25.1 µM [inhibitor, partial curve]
O=C1C=C(c2ccccc2)C[C@H](c2cccs2)[C@H]1n1nnc([N+](=O)[O-])n1 | inconclusive: 39.8 µM [inhibitor, single point]
Cc1cccc(OCc2n[nH]c(=S)o2)c1 | inactive
Cc1cc(C(=O)COC(=O)c2n[nH]c3ccccc23)c(C)n1CC1CCCO1 (stereo not given) | inactive
COc1ccc(Cl)cc1NC(=S)N(CCN1CCOCC1)C1CCN(C(C)=O)CC1 | inactive
NS(=O)(=O)c1ccc(NC(=S)Nc2ccc(S(=O)(=O)N3CCCC3)cc2)cc1 | inactive
CC1Cc2ccccc2N1CC(=O)Nc1ccc(N2CCOCC2)cc1 (stereo not given) | inactive
COc1cccc(C2=CC(c3ccc(C)cc3)n3ncnc3N2)c1 (stereo not given) | inconclusive: 39.8 µM [inhibitor, single point]
COc1cccc([C@@H]2Oc3ccc(OC)cc3C(=O)[C@H]2OC(=O)Nc2ccc(C)c(Br)c2)c1 | inconclusive: 39.8 µM [inhibitor, single point]
O=C(c1ccc(Cl)cc1)c1c[nH]c(C(=O)C(Cl)(Cl)Cl)c1 | inactive
CCOc1ccccc1N1CCN(C/C=C/c2ccc(N(C)C)cc2)CC1 | inconclusive: 28.2 µM [inhibitor, partial curve]
O=S(=O)(c1ccccc1)c1ccc(NCc2ccco2)cc1 | inconclusive: 31.6 µM [inhibitor, single point]
CCCS(=O)(=O)c1c(S(=O)(=O)CCC)c2cnccn2c1C(=O)c1ccc(CC)cc1 | inactive
Cc1ccc(-n2[nH]c(C)c(/C=N/Nc3ccc([N+](=O)[O-])cc3[N+](=O)[O-])c2=O)cc1C | inconclusive: 39.8 µM [inhibitor, single point]
O=C(O)c1cc(-c2ccc3c(c2)OCCO3)n[nH]1 | inconclusive: 35.5 µM [inhibitor, single point]
COc1cc(/C=C/C(=O)OCC(=O)Nc2ccc3c(c2)OCCO3)ccc1OCC#N | inconclusive: 35.5 µM [inhibitor, single point]
Cn1cc(CN2CCc3c([nH]c4ccccc34)C2C2CCCCC2)cn1 (stereo not given) | active: 20 µM
C/C=C(\C)C(=O)C[Si](C)(C)c1ccccc1 | inactive

SMILES | Potency
Cc1cc(-c2cc(-c3ccc(Cl)cc3)on2)nc(NCC2CC2)n1 | inconclusive: 25.1 µM [inhibitor, partial curve]
Cn1cc(C(F)(F)F)nc1-c1ccc(OC[C@@H](O)CNCCOc2ccc(O)c(C(N)=O)c2)cc1 | inconclusive: 35.5 µM [inhibitor, partial curve]
COc1ccc(Cl)cc1N(C(=O)Nc1cccc(Cl)c1)C1=NCC(C)S1 (stereo not given) | inactive
Cc1ccc(S(=O)(=O)NC2CCC(C(=O)O)CC2)cc1 (stereo not given) | inactive
CCOc1ccc(C(=O)NCC(=O)OCc2c(C)noc2C)cc1OCC | inactive
CCN1c2ccccc2NC2C1C(C(C)=O)C(=O)N2c1ccc(Cl)cc1 (stereo not given) | inconclusive: 7.94 µM [inhibitor, full curve]
CCCc1nnc(SCC(=O)O)n1/N=C/c1ccc2c(c1)OCO2 | inconclusive: 25.1 µM [inhibitor, single point]
COc1ccc(NC2=NCCC(=O)N2Cc2cccs2)cc1 | inconclusive: 39.8 µM [inhibitor, single point]
Cc1ccc(CN2CCN(CCCc3ccccc3)CC2CCO)cc1 (stereo not given) | inactive
Cc1ccc(-c2nc(CN(C)C)cc(CN(C)C)c2O)cc1 | inconclusive: 31.6 µM [inhibitor, partial curve]
CCOc1ccc(Nc2c3ccccc3nc3ccccc23)cc1 | inconclusive: 25.1 µM [inhibitor, partial curve]
O=c1c([N+](=O)[O-])c(NCCN2CCCCCC2)c2ccccc2n1-c1ccccc1 | inactive
O=C1C(=O)N(CCc2c[nH]c3ccccc23)C(c2cccnc2)/C1=C(/O)c1ccccc1 (stereo not given) | inconclusive: 15.8 µM [inhibitor, partial curve]
Cc1ccc(NC(=S)NCc2ccccn2)cc1 | inactive
C=CCn1c(SCC(=O)NC(=O)NC)nnc1C1CCCCC1 | inactive
COc1ccc(NC(=O)c2oc3ccccc3c2NC(=O)c2ccco2)cc1 | inconclusive: 39.8 µM [inhibitor, single point]
COc1ccc(C2C(C#N)C(C#N)N3CCCN23)cc1 (stereo not given) | inconclusive: 39.8 µM [inhibitor, single point]
Cc1cc(C)c(Cc2c(C)nc3c(C(=O)NCc4ccco4)cnn3c2C)c(C)c1 | inconclusive: 31.6 µM [inhibitor, partial curve]
NS(=O)(=O)c1ccc(NC(=S)NC2CCCCC2)cc1 | inactive
CCSC(C)CC1C/C(=N/O)c2c(CC)noc2C1 (stereo not given) | inactive
CCC(C)Nc1nc(-c2cccc(OC)c2O)nc2ccccc12 (stereo not given) | inactive
CN1CCN(c2oc(COc3ccc(-c4ccccc4)cc3)nc2C#N)CC1 | inactive
CN(C)c1ccc(C=Nc2ccccc2C(N)=O)cc1 | inconclusive: 31.6 µM [inhibitor, partial curve]
NNC(=O)c1cnn(-c2ccccc2)c1-n1cccc1 | inactive
Cn1cnnc1SCC(=O)c1cc2ccccc2oc1=O | inconclusive: 39.8 µM [inhibitor, single point]

Source: PubChem BioAssay AID2147 (National Center for Advancing Translational Sciences (NCATS), 2009)
